Test results reported in the supplement of paper PMC11876631.
± gives the standard deviation of the averaged measurements. Laboratory Escherichia coli strains with one amino-acid change in an essential protein, pooled on minimal glucose agar with carbenicillin or gentamicin at twice the control MIC (plus kanamycin and chloramphenicol for the plasmids), 48 h. Fold change of barcode share against drug-free plates; higher = less susceptible. Active = above 20 in both replicates (the paper's putatively resistant). '<' = one read or none on drug, '>' = one read or none on a drug-free plate. Shares are relative, so most strains fall below 1 when a few take over. Listed are strains with at least 15 reads on both drug-free plates, and hits; most hits rest on fewer reference reads. Replicate rank correlation about 0.5. Edits are read from barcodes.

B1: hemC I168W (protein)
chain: MLDNVLRIATRQSPLALWQAHYVKDKLMASHPGLVVELVPMVTRGDVILDTPLAKVGGKGLFVKELEVALLENRADIAVHSMKDVPVEFPQGLGLVTICEREDPRDAFVSNNYDSLDALPAGSIVGTSSLRRQCQLAERRPDLIIRSLRGNVGTRLSKLDNGEYDAIWLAVAGLKRLGLESRIRAALPPEISLPAVGQGAVGIECRLDDSRTRELLAALNHHETALRVTAERAMNTRLEGGCQVPIGSYAELIDGEIWLRALVGAPDGSQIIRGERRGAPQDAEQMGISLAEELLNNGAREILAEVYNGDAPA
B2: hemC I168Q (protein)
chain: MLDNVLRIATRQSPLALWQAHYVKDKLMASHPGLVVELVPMVTRGDVILDTPLAKVGGKGLFVKELEVALLENRADIAVHSMKDVPVEFPQGLGLVTICEREDPRDAFVSNNYDSLDALPAGSIVGTSSLRRQCQLAERRPDLIIRSLRGNVGTRLSKLDNGEYDAIQLAVAGLKRLGLESRIRAALPPEISLPAVGQGAVGIECRLDDSRTRELLAALNHHETALRVTAERAMNTRLEGGCQVPIGSYAELIDGEIWLRALVGAPDGSQIIRGERRGAPQDAEQMGISLAEELLNNGAREILAEVYNGDAPA
B3: hemC I168P (protein)
chain: MLDNVLRIATRQSPLALWQAHYVKDKLMASHPGLVVELVPMVTRGDVILDTPLAKVGGKGLFVKELEVALLENRADIAVHSMKDVPVEFPQGLGLVTICEREDPRDAFVSNNYDSLDALPAGSIVGTSSLRRQCQLAERRPDLIIRSLRGNVGTRLSKLDNGEYDAIPLAVAGLKRLGLESRIRAALPPEISLPAVGQGAVGIECRLDDSRTRELLAALNHHETALRVTAERAMNTRLEGGCQVPIGSYAELIDGEIWLRALVGAPDGSQIIRGERRGAPQDAEQMGISLAEELLNNGAREILAEVYNGDAPA
B4: hemC I77A (protein)
chain: MLDNVLRIATRQSPLALWQAHYVKDKLMASHPGLVVELVPMVTRGDVILDTPLAKVGGKGLFVKELEVALLENRADAAVHSMKDVPVEFPQGLGLVTICEREDPRDAFVSNNYDSLDALPAGSIVGTSSLRRQCQLAERRPDLIIRSLRGNVGTRLSKLDNGEYDAIILAVAGLKRLGLESRIRAALPPEISLPAVGQGAVGIECRLDDSRTRELLAALNHHETALRVTAERAMNTRLEGGCQVPIGSYAELIDGEIWLRALVGAPDGSQIIRGERRGAPQDAEQMGISLAEELLNNGAREILAEVYNGDAPA
B5: hemC V109A (protein)
chain: MLDNVLRIATRQSPLALWQAHYVKDKLMASHPGLVVELVPMVTRGDVILDTPLAKVGGKGLFVKELEVALLENRADIAVHSMKDVPVEFPQGLGLVTICEREDPRDAFASNNYDSLDALPAGSIVGTSSLRRQCQLAERRPDLIIRSLRGNVGTRLSKLDNGEYDAIILAVAGLKRLGLESRIRAALPPEISLPAVGQGAVGIECRLDDSRTRELLAALNHHETALRVTAERAMNTRLEGGCQVPIGSYAELIDGEIWLRALVGAPDGSQIIRGERRGAPQDAEQMGISLAEELLNNGAREILAEVYNGDAPA
B6: hemC L174A (protein)
chain: MLDNVLRIATRQSPLALWQAHYVKDKLMASHPGLVVELVPMVTRGDVILDTPLAKVGGKGLFVKELEVALLENRADIAVHSMKDVPVEFPQGLGLVTICEREDPRDAFVSNNYDSLDALPAGSIVGTSSLRRQCQLAERRPDLIIRSLRGNVGTRLSKLDNGEYDAIILAVAGAKRLGLESRIRAALPPEISLPAVGQGAVGIECRLDDSRTRELLAALNHHETALRVTAERAMNTRLEGGCQVPIGSYAELIDGEIWLRALVGAPDGSQIIRGERRGAPQDAEQMGISLAEELLNNGAREILAEVYNGDAPA
B7: hemC L174Q (protein)
chain: MLDNVLRIATRQSPLALWQAHYVKDKLMASHPGLVVELVPMVTRGDVILDTPLAKVGGKGLFVKELEVALLENRADIAVHSMKDVPVEFPQGLGLVTICEREDPRDAFVSNNYDSLDALPAGSIVGTSSLRRQCQLAERRPDLIIRSLRGNVGTRLSKLDNGEYDAIILAVAGQKRLGLESRIRAALPPEISLPAVGQGAVGIECRLDDSRTRELLAALNHHETALRVTAERAMNTRLEGGCQVPIGSYAELIDGEIWLRALVGAPDGSQIIRGERRGAPQDAEQMGISLAEELLNNGAREILAEVYNGDAPA
B8: hemC L174P (protein)
chain: MLDNVLRIATRQSPLALWQAHYVKDKLMASHPGLVVELVPMVTRGDVILDTPLAKVGGKGLFVKELEVALLENRADIAVHSMKDVPVEFPQGLGLVTICEREDPRDAFVSNNYDSLDALPAGSIVGTSSLRRQCQLAERRPDLIIRSLRGNVGTRLSKLDNGEYDAIILAVAGPKRLGLESRIRAALPPEISLPAVGQGAVGIECRLDDSRTRELLAALNHHETALRVTAERAMNTRLEGGCQVPIGSYAELIDGEIWLRALVGAPDGSQIIRGERRGAPQDAEQMGISLAEELLNNGAREILAEVYNGDAPA
B9: hemC L193A (protein)
chain: MLDNVLRIATRQSPLALWQAHYVKDKLMASHPGLVVELVPMVTRGDVILDTPLAKVGGKGLFVKELEVALLENRADIAVHSMKDVPVEFPQGLGLVTICEREDPRDAFVSNNYDSLDALPAGSIVGTSSLRRQCQLAERRPDLIIRSLRGNVGTRLSKLDNGEYDAIILAVAGLKRLGLESRIRAALPPEISAPAVGQGAVGIECRLDDSRTRELLAALNHHETALRVTAERAMNTRLEGGCQVPIGSYAELIDGEIWLRALVGAPDGSQIIRGERRGAPQDAEQMGISLAEELLNNGAREILAEVYNGDAPA
B10: hemC L193Q (protein)
chain: MLDNVLRIATRQSPLALWQAHYVKDKLMASHPGLVVELVPMVTRGDVILDTPLAKVGGKGLFVKELEVALLENRADIAVHSMKDVPVEFPQGLGLVTICEREDPRDAFVSNNYDSLDALPAGSIVGTSSLRRQCQLAERRPDLIIRSLRGNVGTRLSKLDNGEYDAIILAVAGLKRLGLESRIRAALPPEISQPAVGQGAVGIECRLDDSRTRELLAALNHHETALRVTAERAMNTRLEGGCQVPIGSYAELIDGEIWLRALVGAPDGSQIIRGERRGAPQDAEQMGISLAEELLNNGAREILAEVYNGDAPA
B11: hemC V196A (protein)
chain: MLDNVLRIATRQSPLALWQAHYVKDKLMASHPGLVVELVPMVTRGDVILDTPLAKVGGKGLFVKELEVALLENRADIAVHSMKDVPVEFPQGLGLVTICEREDPRDAFVSNNYDSLDALPAGSIVGTSSLRRQCQLAERRPDLIIRSLRGNVGTRLSKLDNGEYDAIILAVAGLKRLGLESRIRAALPPEISLPAAGQGAVGIECRLDDSRTRELLAALNHHETALRVTAERAMNTRLEGGCQVPIGSYAELIDGEIWLRALVGAPDGSQIIRGERRGAPQDAEQMGISLAEELLNNGAREILAEVYNGDAPA
B12: hemC V196W (protein)
chain: MLDNVLRIATRQSPLALWQAHYVKDKLMASHPGLVVELVPMVTRGDVILDTPLAKVGGKGLFVKELEVALLENRADIAVHSMKDVPVEFPQGLGLVTICEREDPRDAFVSNNYDSLDALPAGSIVGTSSLRRQCQLAERRPDLIIRSLRGNVGTRLSKLDNGEYDAIILAVAGLKRLGLESRIRAALPPEISLPAWGQGAVGIECRLDDSRTRELLAALNHHETALRVTAERAMNTRLEGGCQVPIGSYAELIDGEIWLRALVGAPDGSQIIRGERRGAPQDAEQMGISLAEELLNNGAREILAEVYNGDAPA
B13: hemC V196Q (protein)
chain: MLDNVLRIATRQSPLALWQAHYVKDKLMASHPGLVVELVPMVTRGDVILDTPLAKVGGKGLFVKELEVALLENRADIAVHSMKDVPVEFPQGLGLVTICEREDPRDAFVSNNYDSLDALPAGSIVGTSSLRRQCQLAERRPDLIIRSLRGNVGTRLSKLDNGEYDAIILAVAGLKRLGLESRIRAALPPEISLPAQGQGAVGIECRLDDSRTRELLAALNHHETALRVTAERAMNTRLEGGCQVPIGSYAELIDGEIWLRALVGAPDGSQIIRGERRGAPQDAEQMGISLAEELLNNGAREILAEVYNGDAPA
B14: hemC V196P (protein)
chain: MLDNVLRIATRQSPLALWQAHYVKDKLMASHPGLVVELVPMVTRGDVILDTPLAKVGGKGLFVKELEVALLENRADIAVHSMKDVPVEFPQGLGLVTICEREDPRDAFVSNNYDSLDALPAGSIVGTSSLRRQCQLAERRPDLIIRSLRGNVGTRLSKLDNGEYDAIILAVAGLKRLGLESRIRAALPPEISLPAPGQGAVGIECRLDDSRTRELLAALNHHETALRVTAERAMNTRLEGGCQVPIGSYAELIDGEIWLRALVGAPDGSQIIRGERRGAPQDAEQMGISLAEELLNNGAREILAEVYNGDAPA

Each protein was assayed against Escherichia coli (laboratory strain) (assay: barcode share on antibiotic plates over drug-free plates; higher = less susceptible). Settings: antibiotic: carbenicillin; 2× MIC (3.1 µg/mL).
Description: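 A pool of E. coli strains, each edited to carry one amino-acid change in an essential protein, was grown for 48 h on minimal glucose agar with or without antibiotic; strain barcodes were sequenced; mean of two replicates.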
B1 was tested, and the “fold change of barcode share” value was 0.316 ± 0.053. With B2 the “fold change of barcode share” value was 0.362 ± 0.094. With B3 the “fold change of barcode share” value was 1.25 ± 0.21. B4 was tested, and the “fold change of barcode share” value was 0.292 ± 0.022. With B5 the “fold change of barcode share” value was 0.552 ± 0.027. With B6 the “fold change of barcode share” value was 0.315 ± 0.029. With B7 the “fold change of barcode share” value was 0.57 ± 0.25. For B8, the “fold change of barcode share” value was 0.282 ± 0.082. B9 was tested, and the “fold change of barcode share” value was > 53.1 [active]. For B10, the “fold change of barcode share” value was 3.37 ± 0.67. B11 was tested, and the “fold change of barcode share” value was 0.333 ± 0.014. For B12, the “fold change of barcode share” value was 0.338 ± 0.015. For B13, the “fold change of barcode share” value was 0.366 ± 0.0074. In the case of B14, the “fold change of barcode share” value is reported as 0.224 ± 0.063.

Same assay, conditions: antibiotic: gentamicin; 2× MIC (MIC 0.45 µg/mL)
In the case of B1, the “fold change of barcode share” value is reported as 0.0065 ± 0.0012. For B2, the “fold change of barcode share” value was 0.664 ± 0.93. B3 was tested, and the “fold change of barcode share” value was 0.04951 ± 0.00012. B4 was tested, and the “fold change of barcode share” value was 0.00475 ± 0.0033. In the case of B5, the “fold change of barcode share” value is reported as less than 0.0227. With B6 the “fold change of barcode share” value was 0.00806 ± 0.0064. B7 was tested, and the “fold change of barcode share” value was 0.00839 ± 0.0055. For B8, the “fold change of barcode share” value was 0.0856 ± 0.11. In the case of B10, the “fold change of barcode share” value is reported as 0.0927 ± 0.079. With B11 the “fold change of barcode share” value was 0.00437 ± 0.004. With B12 the “fold change of barcode share” value was less than 0.00341. For B13, the “fold change of barcode share” value was 0.00386 ± 0.0031. B14 was tested, and the “fold change of barcode share” value was less than 0.00256.
